Measurements from PMC6212790.
The list shows a part of the results. At the low end of the ranking the order means little.

These sequences were tested against T1, GST-Rok-C97-191 (UniProt O34857) (assay: protein binding microarray). Settings: Rok is a gene silencer of Bacillus subtilis; high values mean tight binding; most listed sequences are background and not binding sites; double strand, one strand shown.
T1 sequence: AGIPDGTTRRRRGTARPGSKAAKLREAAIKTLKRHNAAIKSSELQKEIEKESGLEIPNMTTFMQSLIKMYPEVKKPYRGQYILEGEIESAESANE
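Also: rank score from −0.5 (least bound) to 0.5 (best bound).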

Row | Sequence | binding signal
1 | ACCGGTGA | -0.0892 E-score
2 | CCTGGCTA | -0.208 E-score
3 | AATACGCA | 0.0271 E-score
4 | ACCTCTTA | 0.191 E-score
5 | AGGTCATC | -0.184 E-score
6 | CAAATAAC | 0.213 E-score
7 | ACGTTGAC | -0.18 E-score
8 | ATCAGATC | -0.017 E-score
9 | CATATTCG | 0.013 E-score
10 | AGATTCAT | 0.222 E-score
11 | ATTTTCGA | 0.0387 E-score
12 | CCTTTGGA | -0.243 E-score
13 | CTGTCCTA | 0.0169 E-score
14 | GGGACGAA | -0.212 E-score
15 | AGATCTGC | 0.0617 E-score
16 | CCTTTGGC | -0.32 E-score
17 | ATAGGCAG | 0.0945 E-score
18 | CTTTGGAC | -0.191 E-score
19 | GCGTACGC | 0.0483 E-score
20 | GGCTGACC | -0.187 E-score
21 | ATACTGAG | 0.0846 E-score
22 | CGTATGAA | 0.19 E-score
23 | ATCGCTTG | -0.0185 E-score
24 | ACTGTACC | 0.0681 E-score
25 | ATTACCGG | 0.105 E-score

Row | Sequence | binding signal
26 | AGTCCGCC | -0.302 E-score
27 | CATGTAAG | -0.0321 E-score
28 | CAGATAAG | 0.105 E-score
29 | CGGACTCC | -0.205 E-score
30 | CGGATACC | 0.0204 E-score
31 | ACCTGTTG | -0.14 E-score
32 | ATTTAATC | 0.16 E-score
33 | CGGCTTGA | -0.00751 E-score
34 | ATCGGGGG | -0.419 E-score
35 | GACCGAAA | -0.00589 E-score
36 | CCTGCTAA | -0.086 E-score
37 | CTGCTGCC | -0.0976 E-score
38 | CCGACCCG | -0.291 E-score
39 | ACACGCTC | -0.0114 E-score
40 | AGCAACCA | 0.0527 E-score
41 | CCGGTGTC | -0.252 E-score
42 | GAGATCTA | 0.255 E-score
43 | ACTACTAG | 0.361 E-score
44 | AAGCTAGG | -0.128 E-score
45 | AAATGCAA | 0.151 E-score
46 | CAGGATCA | -0.117 E-score
47 | ATTCGCGA | -0.0573 E-score
48 | CTAATACA | 0.238 E-score
49 | AGCGTGCC | -0.194 E-score
50 | CGGGTCGA | -0.259 E-score

Row | Sequence | binding signal
51 | ACCTCTAG | -0.047 E-score
52 | AACGCCAG | -0.0768 E-score
53 | AATTTAGG | 0.137 E-score
54 | CACGTTCG | -0.0519 E-score
55 | CCGAGCAA | -0.00146 E-score
56 | GAAGCGAA | -0.00304 E-score
57 | GACTGAAA | -0.192 E-score
58 | GCTGACAA | 0.0398 E-score
59 | CTAATCAG | -0.189 E-score
60 | ACGGGTGC | -0.208 E-score
61 | ACGCCGGG | -0.244 E-score
62 | GATGCCTA | -0.0205 E-score
63 | TTTAGAAA | 0.175 E-score
64 | GAGACACC | -0.228 E-score
65 | CCGATGTC | -0.213 E-score
66 | TAGCGATA | 0.209 E-score
67 | GATGCCGC | -0.271 E-score
68 | ATAATGTA | 0.405 E-score
69 | ACTCGCAC | -0.078 E-score
70 | CGTGAAGC | -0.266 E-score
71 | ACCCTTGG | -0.176 E-score
72 | CCATGACA | -0.0439 E-score
73 | ATGAACGG | 0.0111 E-score
74 | GGAATTTA | 0.241 E-score
75 | GACACTGA | -0.134 E-score

Row | Sequence | binding signal
76 | ACTCAACG | -0.123 E-score
77 | GGATGATA | 0.113 E-score
78 | AGTCATGA | 0.0312 E-score
79 | AGTTACGA | 0.197 E-score
80 | GCTAGCTA | 0.119 E-score
81 | CTCCACAA | -0.145 E-score
82 | AGCAACGC | -0.185 E-score
83 | ACACTATC | 0.204 E-score
84 | AAAGATCT | 0.0493 E-score
85 | AGTGCTCG | -0.142 E-score
86 | ACGCTTCC | -0.177 E-score
87 | GGTTCCCA | -0.316 E-score
88 | CGTATCAG | -0.0859 E-score
89 | CAGGACAG | -0.206 E-score
90 | GGTCGATA | 0.0618 E-score
91 | TGAAGTCA | -0.0476 E-score
92 | CAGGGGTA | 0.0989 E-score
93 | GACTGGGA | -0.0997 E-score
94 | GCCAAGTA | 0.072 E-score
95 | GAACCCTC | -0.268 E-score
96 | ATAAAGAC | -0.0384 E-score
97 | ATATAGCC | 0.135 E-score
98 | GCAGGCCC | -0.239 E-score
99 | GCGGTCTA | -0.0811 E-score
100 | AGTTGGGA | 0.0355 E-score

Row | Sequence | binding signal
101 | CCCCGACG | -0.162 E-score
102 | ATGCTCGA | 0.0667 E-score
103 | ACTTTTAT | 0.271 E-score
104 | GGGGACCC | -0.278 E-score
105 | AATCCTGA | -0.0967 E-score
106 | CAGGACTC | -0.354 E-score
107 | CATCACCA | 0.054 E-score
108 | ATCATTGG | 0.0775 E-score
109 | CTAGAAAC | 0.34 E-score
110 | GACCTATC | 0.11 E-score
111 | GGCCAAAA | -0.264 E-score
112 | CATAGTAC | 0.266 E-score
113 | CGACGTGA | 0.105 E-score
114 | ACAGTGCA | -0.0746 E-score
115 | CCCGATCA | -0.0678 E-score
116 | ATCTGAGC | -0.0162 E-score
117 | CCGACATC | -0.283 E-score
118 | ATAAATCC | 0.0577 E-score
119 | CTCGGCGA | -0.213 E-score
120 | CGTCACGA | -0.124 E-score
121 | ATCGTCTG | -0.0463 E-score
122 | ATACTCGG | 0.0546 E-score
123 | CATCCGTC | -0.224 E-score
124 | CAAATCAA | -0.0279 E-score
125 | ATCGGGAA | 0.0603 E-score

Row | Sequence | binding signal
126 | ATTACCCC | -0.0257 E-score
127 | CACCGGCG | -0.25 E-score
128 | ATTTGGAA | 0.102 E-score
129 | CTCTGCCA | -0.3 E-score
130 | ATTTCCAG | 0.191 E-score
131 | GGCACAAA | -0.222 E-score
132 | AGACCAGC | -0.0921 E-score
133 | CAGCGAGG | -0.246 E-score
134 | TCGTTTAA | 0.00225 E-score
135 | CATGCTGA | -0.19 E-score
136 | ACACGAAT | 0.0134 E-score
137 | CTCACGTA | 0.0177 E-score
138 | AGGACTTC | 0.00999 E-score
139 | CACTCAGG | -0.236 E-score
140 | AATCTGTC | -0.00599 E-score
141 | CAAATTTC | 0.0612 E-score
142 | ATGCAATC | 0.192 E-score
143 | GAATTTGA | 0.074 E-score
144 | AACTAGCC | 0.107 E-score
145 | ACTAGTCT | 0.215 E-score
146 | CCCTACAC | -0.0926 E-score
147 | CGTCTATA | 0.0552 E-score
148 | ACGGATAA | 0.0199 E-score
149 | ACTCCCGA | 0.0763 E-score
150 | ACGCCGAC | -0.229 E-score

Row | Sequence | binding signal
151 | AAGTATTC | 0.138 E-score
152 | ACACGCTA | 0.197 E-score
153 | AGCCTACT | 0.0687 E-score
154 | AACTGAGT | 0.101 E-score
155 | ACCATTGC | 0.0262 E-score
156 | CTAGGACC | -0.133 E-score
157 | AAGCCTGT | -0.153 E-score
158 | GGGCGCTA | -0.121 E-score
159 | GCCGCATA | -0.121 E-score
160 | GGAACACC | -0.346 E-score
161 | CTGCTACC | -0.0872 E-score
162 | ATTGGGCG | -0.0948 E-score
163 | ATGATAGC | 0.15 E-score
164 | AAAAATGA | 0.0202 E-score
165 | AGATTGAC | 0.0153 E-score
166 | AACTCGGC | 0.127 E-score
167 | CAGGTGGG | -0.339 E-score
168 | ATTTTATA | 0.385 E-score
169 | AAGCTAGA | 0.231 E-score
170 | ACAGTCGA | 0.0501 E-score
171 | AGTAGCCG | -0.00732 E-score
172 | ATGGGTAA | 0.142 E-score
